Assay results published in the supplement of paper PMC3334620.
In all, about 33,000 sequences were measured (“E-score (-0.5 to 0.5)”: median about -0.035, highest 2% from about 0.34 on). This is one part of the list.

Target: T1, Mot3 (UniProt P54785)
T1 sequence: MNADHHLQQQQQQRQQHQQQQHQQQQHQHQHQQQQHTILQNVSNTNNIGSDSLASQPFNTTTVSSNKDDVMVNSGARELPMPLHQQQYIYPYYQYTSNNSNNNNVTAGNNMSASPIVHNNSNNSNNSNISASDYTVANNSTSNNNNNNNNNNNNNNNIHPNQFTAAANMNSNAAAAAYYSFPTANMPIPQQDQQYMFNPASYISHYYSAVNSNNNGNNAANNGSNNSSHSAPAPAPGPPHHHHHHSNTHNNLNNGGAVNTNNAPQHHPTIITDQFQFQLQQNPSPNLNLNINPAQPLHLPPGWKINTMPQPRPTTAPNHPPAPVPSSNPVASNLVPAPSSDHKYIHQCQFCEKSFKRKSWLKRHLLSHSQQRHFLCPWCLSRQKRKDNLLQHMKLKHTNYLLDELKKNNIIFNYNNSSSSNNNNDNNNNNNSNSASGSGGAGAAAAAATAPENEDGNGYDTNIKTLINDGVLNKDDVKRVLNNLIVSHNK
Test: PBM E-score (8-mer binding enrichment) (E-score (-0.5 to 0.5)); higher = stronger / more preferred TF binding; most listed sequences are background and not binding sites
Conditions: protein concentration: 200 nM; construct: GST-full length
Outline: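 PURExpress in vitro transcription/translation supplied GST-tagged yeast transcription factors, either full-length or DNA-binding domain. Applied at about 100-200 nM to universal all-10-mer Agilent arrays double-stranded by primer extension, the bound protein was detected with fluorescent anti-GST. E-scores, modified Wilcoxon-Mann-Whitney statistics, were given by the Universal PBM Analysis Suite to ungapped eight-base words pooled with their reverse complements after masliner normalisation.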

Sequence	PBM E-score
TGAACCCA	-0.127
CAGTCGCC	-0.277
AGTTTTTA	0.0728
AGGAAGCA	-0.0622
AGATTCAT	0.0532
CGTAGAAA	0.314
GAAACTTA	0.157
AGCCGGAT	-0.356
CACAACAA	0.252
AATCTGGT	0.199
CGTACTAC	0.134
AAACTTTA	0.19
CAAGTGGA	-0.0962
CCTGAGGA	-0.0567
ACACCCGC	-0.0189
AAGTATTA	0.0795
GACCAAAC	-0.17
TAGTCCGA	-0.0853
GCTCAGCA	-0.0533
CTTACACC	0.0678
AGCCCTAT	-0.16
AAAAACAT	0.172
CTTGGACA	-0.0991
ACCCCTAC	0.0767
AATAGGTG	0.0976

Sequence	PBM E-score
AGATGGAA	-0.113
AATTTAGT	0.101
TGCGGCCA	-0.155
GTGGTTGA	-0.0344
GAGGATCA	-0.0459
CGAGCAGC	-0.0701
CCAAATGG	-0.18
CGGTTCGC	-0.207
AAGGCGTA	0.141
AGTCAGGG	-0.269
AGCCTTGC	0.0701
ACTATGTC	0.104
ATAGGCTG	-0.0765
GCTTCGAC	-0.148
ACGTAGGG	-0.0716
ACTGTGCA	-0.0432
CGAGGTTA	0.073
CCTTTTTA	0.291
TGAGGCCA	0.0399
CGTAAATC	0.143
AGCCTACG	0.18
CATTGGAC	-0.204
TAACATGA	0.363
AAGCTTAC	-0.0547
TCGGTGAA	0.0157

Sequence	PBM E-score
CAGTGCTC	-0.125
ATTAAGCA	-0.0855
CGCCCTGC	-0.234
GAGGGAGA	-0.281
AAAACCTC	-0.0354
ATAGTAAG	-0.0818
CACGTACA	0.266
AGTCCGCC	-0.263
GATTTAGA	-0.0125
CGCAACCG	-0.32
GACTTCGA	-0.0506
GCGAGTTA	0.0884
CAGCTTCG	-0.0338
AATCTATA	0.123
ATAGGATG	-0.0878
AAGCGTAC	0.0717
CGGGGTGA	-0.187
AGCGAGGC	-0.151
GGACTGTA	0.0675
ACATCGCT	0.0611
CGGCAAAC	-0.217
ACTCGGGG	-0.29
AGGCAGAT	0.0714
AATGCGGT	-0.155
CCTCCAGA	-0.0591

Sequence	PBM E-score
AGGTTCCA	-0.196
GGACCACA	-0.128
CGTTTTAG	-0.00668
ACGAAGTA	0.0208
AAAGTGTT	0.246
GCTCAGGA	0.126
ACGACAGG	0.147
AGGTTCGC	-0.0542
AATATGTA	0.277
ACTCACCC	-0.299
ACTCCGCC	-0.292
TAGAACGA	0.137
ATACACCC	-0.0606
CAAGTGAA	0.0267
TGAACGAA	-0.0491
TAAATGCA	0.0257
ATCATTGG	-0.0992
CATCCCTC	-0.096
TAATTAAA	0.14
GGAGTCCA	-0.101
CAACGGCG	-0.15
AGTGTTGC	0.0603
AGTCAGAG	-0.26
TAATCGCA	0.113
AAGAGAAG	0.0573

Sequence	PBM E-score
AGCGTTGC	0.0285
TTAGTCAA	-0.0261
ATGCTCGG	-0.156
AGGTCAGA	-0.3
AAGTGGAT	-0.0844
AAACGTCT	0.0253
CGTTGTCA	-0.048
CTCCCGGC	-0.216
CGGGTGGC	-0.223
AGGCTTTG	-0.124
CCGTGACA	-0.105
AGGTCATG	-0.194
GTATCTGA	0.0923
GATCTGTA	-0.0261
CTCTGCTC	-0.218
AGCTTAAT	-0.0327
CGTTGAAG	0.116
ACAGGGGA	-0.0298
AGTCAGCA	0.128
CCTTGTCC	-0.118
TACGTGGA	0.0343
ATACTTGC	0.17
GCGAGTAC	0.102
CCTCTAGA	-0.0256
ATACTTCC	-0.0416

Sequence	PBM E-score
CAACTGTC	-0.154
CCGAGGCC	-0.338
GTCGATGA	-0.166
GCGAGGTA	-0.0111
CGATCTGC	-0.265
GAATACTC	-0.0747
ATACGAGA	0.0959
ACGTGGGG	-0.183
GACTGGGC	-0.137
GGGCCGCA	-0.243
CCGTTAAC	0.0218
AAAAAATT	0.22
AGTCCCAG	-0.0882
ACGAGTAT	-0.0294
ACCAAGCT	-0.1
GGCAATCA	0.187
CATGTTGG	0.286
CACCAGGG	-0.212
CTCCTTGA	-0.122
AGTTGGAC	0.0582
ACAAACCA	-0.015
AACGCGCA	0.156
ACTGCTGA	-0.153
AAATGAAG	-0.0635
CTGAGTAA	0.0746

Sequence	PBM E-score
ATAATAAC	0.112
ACTCCACG	-0.262
CTAAGCCA	-0.139
AGAATAAG	-0.065
GCCATCTA	-0.0511
CCTGTAGA	0.159
AGATCAAA	-0.0722
ATACCCTG	-0.166
GGCATTTA	0.207
CCAGATAA	-0.116
TGCCCAAA	0.167
AACCTAAC	-0.00642
AAGGTGGG	-0.139
ATAGCGCC	0.228
CAAGCAGA	0.0203
CAACCGGC	-0.229
ATTAGCTA	0.137
ATTCGCCC	-0.214
ACCCTGCG	-0.0602
AAGTGCCT	0.48
ATGAGCTG	-0.105
AGCACTAC	-0.184
